# No constants are given. Whether binding was seen depends on the method and setting. Some binding calls cover weakened binding; strength is not graded here.
# Experiments:
# [1] = biological target: full-length QseE (QseEfl), C-terminal Strep II tag (Salmonella enterica serovar Typhimurium SL1344); experiment: pull-down; Strep-tagged QseE (20 µM) and QseG (40 µM) in 20 mM Tris-HCl pH 8.0, 150 mM NaCl, 0.002% LMNG, 0.0002% CHS; Strep-Tactin beads, 25°C, 30 min; eluted with desthiobiotin; SDS-PAGE, Coomassie; both purified
# [2] = biological target: strep-tagged QseE_(38-171) (Salmonella enterica serovar Typhimurium SL1344); experiment: as above
# [3] = biological target: full-length QseE (QseEfl), C-terminal Strep II tag (Salmonella enterica serovar Typhimurium SL1344); experiment: SEC; Superdex 200 10/300 GL; QseE and QseG alone or mixed at 1:2 molar ratio (QseE to QseG), incubated at 37°C for 30 min; column buffer as in QseE purification; fractions on SDS-PAGE; both purified
# [4] = biological target: full-length QseE (QseEfl), C-terminal Strep II tag (Salmonella enterica serovar Typhimurium SL1344); experiment: cryo-EM structure; QseG_(37-221) and QseE mixed at 3:1 molar ratio, complex separated by SEC; 3.9 Å map with C2 symmetry imposed; model limited to QseG 58-220 and QseE 34-173; both purified
Substance,binding [1],binding [2],binding [3],binding [4]
QseG_(37-193) (from UniProt A0A4Z0KM88 37-193) (domain or fragment),"no binding (tested: QseG 40 µM, Strep-tagged QseE 20 µM)",–,–,–
"QseG (mature lipoprotein, QseG_(37-end)) (from UniProt A0A4Z0KM88 37-254)",binds,"no binding (tested: QseG 40 µM, Strep-tagged QseE 20 µM)",binds,–
QseG_(37-214) (from UniProt A0A4Z0KM88 37-214) (domain or fragment),"no binding (tested: QseG 40 µM, Strep-tagged QseE 20 µM)",–,–,–
QseG_(37-181) (from UniProt A0A4Z0KM88 37-181) (domain or fragment),"no binding (tested: QseG 40 µM, Strep-tagged QseE 20 µM)",–,–,–
QseG_(37-221) (from UniProt A0A4Z0KM88 37-221) (domain or fragment),binds,–,–,binds

# — paper PMC12691602, “Cryo-EM structure of the QseG-QseE complex reveals an accessory protein-driven two-component system activation mechanism” (mBio, 2025)
